# Source: the supplement of paper PMC3694890
# ± gives the uncertainty stated by the source. Some of the results follow. Phosphotyrosine is written y.
# Target: GRB2 (endogenous complexes from cell lysate), P62993
# Test: GRB2 complex binding differential signal (pY peptide minus Ala control peptide) (fluorescence intensity units); higher = stronger GRB2 complex binding
# 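Note: phosphopeptide probes on the chip at 1–4 µM, lysate proteins bound in 20 mM Tris pH 7.0 buffer with 140 mM NaCl, 1% Triton X-100 and 5% glycerol.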
Binder,GRB2 complex binding differential signal (MCF7),GRB2 complex binding differential signal (MCF10A),GRB2 complex binding differential signal (MDA-MB-231),GRB2 complex binding differential signal (T47D)
yNSIPG [SHC2_339/A1],684 ± 1000,3070 ± 480,523 ± 560,-23 ± 1200
yCELVP [SH2D3A_231/A1],-1480 ± 3900,155 ± 190,595 ± 390,86.7 ± 910
yVKFSK [SH2D3C_183/A1],101 ± 160,197 ± 160,637 ± 390,1090 ± 760
yYNDFP [SHC1_349/A1],4260 ± 640,3160 ± 490,3010 ± 520,13500 ± 3100
yTAASP [SH22A_39/A1],3710 ± 1300,3150 ± 640,1390 ± 1300,2840 ± 1000
yYNSIP [SHC2_338/A1],12100 ± 3300,4930 ± 800,2100 ± 360,8620 ± 1600
yCQLQP [SH2D3C_495/A1],533 ± 500,633 ± 210,554 ± 390,388 ± 1100
yVEVED [SH22A_305/A1],253 ± 770,447 ± 310,699 ± 360,251 ± 980
yVNTQG [SHC2_414/A1],36000 ± 8000,26000 ± 5600,10400 ± 1100,9040 ± 9400
yENCLE [SHC4_424/A1],12500 ± 5100,14000 ± 2200,8550 ± 1300,10100 ± 3400
yHTNAE [SH2D3C_793/A1],1310 ± 500,1430 ± 540,1040 ± 340,1070 ± 1100
yNDFPG [SHC1_350/A1],-1370 ± 510,-57.7 ± 690,409 ± 350,828 ± 1100
yDVPPA [BCAR1_327/A1],2390 ± 640,1800 ± 760,1510 ± 500,1140 ± 1100
yVNVQN [SHC1_427/A1],43000 ± 9200,25500 ± 4600,31500 ± 5900,39100 ± 7200
yAMGRG [SH22A_290/A1],1350 ± 1100,737 ± 380,294 ± 350,71.6 ± 990
yGSLSS [SHIP1_1022/A1],586 ± 290,3.41 ± 320,797 ± 280,1250 ± 1000
yMTGRR [SH2D3A_95/A1],897 ± 280,350 ± 190,72.3 ± 230,–
